Reference: PubChem BioAssay AID924 (National Center for Advancing Translational Sciences (NCATS), 2007)
The whole screen tested about 130,000 compounds, of which about 1,200 (0.92%) were called active. The shares of active, inactive and inconclusive entries below differ from those in the screen. Calls follow the shape of the dose curve; as a rule, active = well fitted cell-killing curve with a large enough effect; inconclusive = small, poorly fitted or top-dose-only effect; inactive = no such curve, though single readings can be large or run the other way. A potency beside an inconclusive call is a rough fit, not a confirmed value.
Potency is read from the fitted curve at half-maximal effect; tags tell the direction and shape of the fitted curve.

Assay: qHTS Screen for Compounds that Selectively Target Cancer Cells with p53 Mutations: Cytotoxicity of p53ts Cells at the Permissive Temperature; also: nearly all actives have a fitted effect of over 55% in size;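 as to activity change, negative = cytotoxicity: 0% = DMSO and -100% = full killing by reference compound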
Details: H1299-p53A138V at 32C, ATP luminescence viability, 24 h; activity change, negative = cytotoxicity: at 46.1 µM (top of the series)
Method in brief: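 H1299-p53 A138V cells (temperature-sensitive p53) exposed 24 h to up to 46 uM compound at 32C, where p53 is wild-type in conformation. Viability read as ATP luminescence and normalised to DMSO and 100 uM tamoxifen. AC50 fitted with the Hill equation.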
For `O=c1cc(-c2ccccc2)oc2c(O)c(O)ccc12`, the Potency was inconclusive: 12.6 µM [cytotoxic, partial curve].
With `COc1cc2c(C#N)c(N3CCN(c4ccccc4OC)CC3)nc(N)c2c(N)n1` the Potency was inconclusive: 31.6 µM [cytotoxic, single point].
In the case of `COc1ccc(-c2nc(Cn3c(SCc4cccc(Cl)c4)nc4ccncc43)c(C)o2)cc1`, the Potency is reported as inconclusive: 25.1 µM [cytotoxic, single point].
With `Cc1cccc2[nH]c(-c3ccc(NC(=O)c4ccco4)cc3)nc12` the Potency was inconclusive: 31.6 µM [cytotoxic, single point].
For `OCCNCCCOc1cccc(Cl)c1Cl`, the Potency was inconclusive: 1.26 µM [cytotoxic, full curve].
With `Cn1c(=O)c(-c2ccc(Cl)cc2)nc2cnc(Oc3ccccc3)nc21` the “activity change, negative = cytotoxicity” value was inactive: -22.1%.
For `CN(C)c1ccc(C(=O)Nc2nc3c(s2)CCCC3)cc1`, the Potency was inconclusive: 15.8 µM [cytotoxic, partial curve].
In the case of `O=C(Cc1ccsc1-c1ccccc1)NO`, the Potency is reported as inconclusive: 10 µM [cytotoxic, partial curve].
For `Cc1ccc(-n2ncc3c(NCCCn4ccnc4)ncnc32)cc1`, the Potency was inconclusive: 7.08 µM [cytotoxic, partial curve].
In the case of `Cc1ccc(NC(=O)CSc2nc3nccnc3c(=O)n2CCc2c[nH]c3ccccc23)c(C)c1`, the “activity change, negative = cytotoxicity” value is reported as inactive: -5.76%.
For `CN(C)c1ccc(-c2nc(Nc3ccncc3)c3ccccc3n2)cc1`, the Potency was active: 10 µM.
For `Cc1ccc(Cl)cc1NC(=O)c1cc(-c2ccc3c(c2)OCCO3)on1`, the Potency was inconclusive: 3.98 µM [cytotoxic, full curve].
For `CCCCN(CC)S(=O)(=O)c1ccc(C(=O)Nc2nnc(-c3cccs3)o2)cc1`, the Potency was inconclusive: 3.98 µM [cytotoxic, full curve, poor fit].
In the case of `CCOc1ccc2nc(NC(=O)Nc3cccs3)sc2c1`, the Potency is reported as active: 15.8 µM.
In the case of `Cc1nc2c(C(=O)NCCc3ccccc3)c[nH]n2c(=O)c1Cc1ccccc1F`, the Potency is reported as inconclusive: 15.8 µM [cytotoxic, single point].
For `CC1=C/C(=N\OS(=O)(=O)c2ccccc2)C=CC1=O`, the Potency was inconclusive: 3.16 µM [cytotoxic, partial curve].
For `Cc1nc(-c2cccc(N)c2)cs1`, the “activity change, negative = cytotoxicity” value was inactive: -5.63%.
For `CC1=C(c2ccc(C)c(C)c2)S(=O)(=O)N=C1N1CCC(C(=O)Nc2ccc(Cl)cc2)CC1`, the “activity change, negative = cytotoxicity” value was inactive: -28%.
For `COc1ccc(OC)c2[nH]c(=O)c(CCNC(C)=O)cc12`, the Potency was inconclusive: 25.1 µM [cytotoxic, single point].
With `CCc1nnc(NC(=O)CSc2nnc(C)n2Cc2ccccc2)s1` the Potency was inconclusive: 0.355 µM [cytotoxic, full curve, poor fit].
In the case of `COc1ccc(C)cc1NC(=O)C(OC(=O)CNC(=O)c1cccc(F)c1)c1ccccc1` (stereo not drawn), the Potency is reported as inconclusive: 3.16 µM [cytotoxic, partial curve].
For `Oc1c(Cl)cc(Cl)c2c1NCCC2`, the Potency was inconclusive: 31.6 µM [cytotoxic, single point].
For `COCCn1c(C)cc(C(=O)CSc2nncn2-c2ccccc2)c1C`, the Potency was inconclusive: 12.6 µM [cytotoxic, single point].
With `Cc1cc(C2(c3cc(C)c(O)c(C(=O)O)c3)OS(=O)(=O)c3ccccc32)cc(C(=O)O)c1O` the activity change, negative = cytotoxicity was inactive: 11.4% [at 9.22 µM].
In the case of `O=C(Nc1ccc(S(=O)(=O)N2CCCCC2c2cccnc2)cc1)c1ccc(F)cc1` (stereo not drawn), the “activity change, negative = cytotoxicity” value is reported as inactive: 5.13%.
For `Cc1[nH]c2ccccc2c1/C=N/NC(=O)CNC(=O)c1ccc2c(c1)OCO2`, the Potency was inconclusive: 0.0158 µM [cytotoxic, full curve, poor fit].
For `COc1cc(NC(=O)NCCN2CCN(c3ccc(Cl)cc3)CC2)ccc1C`, the “activity change, negative = cytotoxicity” value was inactive: -8.81%.
With `CCn1c(C(=O)NCc2ccc(OC)cc2)cc2sc(Cl)cc21` the Potency was inconclusive: 12.6 µM [cytotoxic, partial curve].
With `CC1CCC2C(=O)OC(CO)CN2C1c1ccc(Br)cc1` (stereo not drawn) the activity change, negative = cytotoxicity was inactive: 2.15% [at 9.22 µM].
In the case of `CCC(C)Sc1nc2c(cnn2-c2ccc(C)c(C)c2)c(=O)[nH]1` (stereo not drawn), the “activity change, negative = cytotoxicity” value is reported as inactive: 4.81%.
With `COc1cccc(CNC(=O)CN2C(=O)N(c3c(C)cccc3C)S(=O)(=O)c3ccccc32)c1OC` the “activity change, negative = cytotoxicity” value was inactive: 20.4%.
With `O=C(Nc1ccc(SC(F)F)cc1)C1=COCCO1` the Potency was inconclusive: 12.6 µM [cytotoxic, partial curve].
For `O=C1CCc2cc(S(=O)(=O)N3CCCC3C(=O)N3CCN(c4ccccc4)CC3)ccc2N1` (stereo not drawn), the Potency was inconclusive: 25.1 µM [cytotoxic, single point].
In the case of `c1ccc(-n2nnnc2SCCCSc2nc3ccccc3s2)cc1`, the “activity change, negative = cytotoxicity” value is reported as inactive: 2.23%.
With `CCOC(=O)CSc1ccc2nnc(-c3ccncc3)n2n1` the Potency was inconclusive: 0.631 µM [cytotoxic, full curve, poor fit].
With `CCOC(=O)c1c(NC(=O)OC)sc(C(=O)N(C)C)c1C` the “activity change, negative = cytotoxicity” value was inactive: 7.97%.
With `Cc1cccc(/C=C(\c2nc3ccccc3[nH]2)S(=O)(=O)c2ccccc2)c1` the Potency was active: 4.47 µM.
In the case of `CC(=O)[C@H]([C@@H](c1ccccc1)N1CCOCC1)N1CCOCC1`, the activity change, negative = cytotoxicity is reported as inactive: 1.62% [at 9.22 µM].
With `COc1ccccc1OCC(=O)NCC(c1ccc(Cl)cc1)N1CCCCC1` (stereo not drawn) the Potency was inconclusive: 3.55 µM [cytotoxic, partial curve].
With `[O-][n+]1onc2c1CCc1c-2nn(-c2ccccc2Cl)[n+]1[O-]` the Potency was inconclusive: 31.6 µM [cytotoxic, single point].
In the case of `CCOc1ccc(N2C(=O)c3ccccc3C2O)cc1` (stereo not drawn), the Potency is reported as inconclusive: 10 µM [cytotoxic, partial curve].
With `Cn1c(=O)c2c(nc(NCc3ccccc3)n2Cc2ccccc2)n(C)c1=O` the “activity change, negative = cytotoxicity” value was inactive: -13.4%.
In the case of `CNc1nc(N2CCc3ccccc32)ncc1F`, the Potency is reported as inconclusive: 15.8 µM [cytotoxic, single point].
In the case of `CCc1ccc(-n2nc(C)c3c(C)cc(=O)n(CC(=O)N4CCCc5ccccc54)c32)cc1`, the “activity change, negative = cytotoxicity” value is reported as inactive: -0.527%.
For `CCOc1ccc(-c2nonc2NC(=O)c2oc3ccc(Br)cc3c2C)cc1`, the Potency was inconclusive: 3.16 µM [cytotoxic, full curve, poor fit].
For `Cc1ccc(N2CC(NC(=O)Cc3cccs3)CC2=O)cc1C` (stereo not drawn), the “activity change, negative = cytotoxicity” value was inactive: -8.68%.
For `COc1ccc(Cl)cc1NC(=O)CCS(=O)(=O)c1nc(-c2cccs2)cc(C(F)(F)F)n1`, the Potency was inconclusive: 20 µM [cytotoxic, single point].
In the case of `CCOc1ccc(CNS(=O)(=O)c2c(C(=O)N3CCC(C)CC3)c(C)n(C)c2C)cc1OC`, the “activity change, negative = cytotoxicity” value is reported as inactive: 7.39%.
For `O=C(Nc1ccc(N2CCCC2)cc1)c1ccccc1F`, the Potency was inconclusive: 8.91 µM [cytotoxic, partial curve].
With `O=C(NCc1ccc(Cl)cc1)C(=O)Nc1ccc(Br)cc1` the “activity change, negative = cytotoxicity” value was inactive: 5.14%.
In the case of `COc1ccccc1-c1ccc2ncnc(N3CCOCC3)c2c1`, the Potency is reported as inconclusive: 31.6 µM [cytotoxic, single point].
With `Cc1cc(NC(=O)c2ccc3c(c2)OCO3)ccc1NC(=O)c1ccco1` the Potency was inconclusive: 12.6 µM [cytotoxic, single point].
In the case of `O=C(NCCO)c1ccc(-n2c(=O)c(=O)[nH]c3ccccc32)cc1`, the “activity change, negative = cytotoxicity” value is reported as inactive: 3.26%.
For `Cc1ccc(C(=O)C(NC(=O)c2ccco2)N2CCOCC2)cc1` (stereo not drawn), the Potency was inconclusive: 31.6 µM [cytotoxic, single point].
In the case of `CCOC(=O)c1cccc(Nc2c3c(nc4ccccc24)CCC3)c1`, the Potency is reported as inconclusive: 17.8 µM [cytotoxic, partial curve].
For `Cc1ccc(N2CC(c3nc4ccccc4n3CCC3CCCCC3)CC2=O)cc1` (stereo not drawn), the “activity change, negative = cytotoxicity” value was inactive: 8.04%.
In the case of `O=C(Nc1ccc(N2CCCC2=O)cc1)c1cccc(F)c1`, the Potency is reported as inconclusive: 10 µM [cytotoxic, partial curve].
In the case of `CC(C)NCC(O)Cn1c2c(c3ccccc31)CCc1c-2cnn1-c1ccccc1` (stereo not drawn), the Potency is reported as inconclusive: 20 µM [cytotoxic, single point].
In the case of `CC(C)c1ccc(NC(=O)CN(C)S(=O)(=O)c2ccc3c(c2)c(=O)n(C)c(=O)n3C)cc1`, the “activity change, negative = cytotoxicity” value is reported as inactive: -1.91%.
For `Cn1c(=O)c2c([nH]c(=O)n2Cc2ccc(Cl)cc2Cl)n(C)c1=O`, the “activity change, negative = cytotoxicity” value was inactive: -4.93%.
With `Oc1ccc(N=Cc2ccc(O)c(O)c2)cc1` the Potency was inconclusive: 25.1 µM [cytotoxic, single point].
For `CCc1ccccc1OC[C@@H](O)CN[C@H]1CCCc2ccccc21`, the Potency was active: 31.6 µM.
For `Nc1ccc2oc(-c3ccccn3)nc2c1`, the Potency was inconclusive: 10 µM [cytotoxic, partial curve].
In the case of `CCOC(=O)C1CCN(C(=O)C2CCN(c3nc4ccc(OC)cc4s3)CC2)CC1`, the Potency is reported as inconclusive: 12.6 µM [cytotoxic, partial curve].
For `COc1ccc(OC)c2sc(N3CCN(C(=O)C4CC4)CC3)nc12`, the Potency was inconclusive: 35.5 µM [cytotoxic, single point].
For `CC1=C(C)/C(=N/OC(=O)c2cccc([N+](=O)[O-])c2)C=CC1=O`, the Potency was inconclusive: 35.5 µM [cytotoxic, single point].
With `COC(=O)CS(=O)(=O)c1nnc([C@H](Cc2ccccc2)NC(=O)OC(C)(C)C)o1` the Potency was inconclusive: 31.6 µM [cytotoxic, single point].
With `CCCCOc1ccc(C(=O)N2CCN(CCc3ccccn3)CC2)cc1` the “activity change, negative = cytotoxicity” value was inactive: 3.48%.
For `COc1ccc2cc(C(=O)NCc3ccco3)c(=O)oc2c1`, the Potency was inconclusive: 12.6 µM [cytotoxic, single point].
In the case of `CCOc1ccc(OCc2cccc(C(=O)N3CCCC3)c2)cc1`, the Potency is reported as inconclusive: 12.6 µM [cytotoxic, partial curve].
In the case of `CCC(C)NC(=O)c1c(F)c(F)c(F)c(F)c1F` (stereo not drawn), the “activity change, negative = cytotoxicity” value is reported as inactive: -16.4%.
With `COc1ccc(-c2ccc(=O)n(CC(=O)Nc3ccc(C)cc3C)n2)cc1` the “activity change, negative = cytotoxicity” value was inactive: 11.2%.
For `c1ccc(CC2CCN(c3nc(N4CCOCC4)nc(N4CCOCC4)n3)CC2)cc1`, the “activity change, negative = cytotoxicity” value was inactive: -3.51%.
